# Source: US12297265B2, “Antibody and use thereof” (SICHUAN KELUN-BIOTECH BIOPHARMACEUTICAL CO., LTD., priority 2018, dated 2025)
# B1: 2C6.9-hz21: humanized antibody of 2C6.9; VH SEQ ID NO: 40, VL SEQ ID NO: 41; heavy chain SEQ ID NO: 106, light chain 107 (antibody)
# heavy: QVQLQESGPGLVKPSETLSLTCTVSGFSLTRYGVSWIRQPPGKGLEWIGVIWGEGNTNYNPSLKSRVTISKDSSKSQVSLKLSSVTAADTAVYYCARVNFGNALDYWGQGTLVTVSS[sequence of human IgG1 constant region omitted]
# light: DIVMTQSPDSLAVSLGERATINCKSSQSLLNSGNQKNYLTWYQQKPGQPPKLLIYWASTRDSGVPDRFSGSGSGTDFTLTISSLQAEDVAVYYCQNDFIFPLTFGGGTKVEIKRTVAAPSVFIFPPSDEQLKSGTASVVCLLNNFYPREAKVQWKVDNALQSGNSQESVTEQDSKDSTYSLSSTLTLSKADYEKHKVYACEVTHQGLSSPVTKSFNRGEC
# modifications: heavy chain amino acid sequence of humanized antibody 2C6.9 hz21; light chain amino acid sequence of humanized antibody 2C6.9 hz21
# Experiments:
# [1] = target: T1, human Claudin18.2 (Homo sapiens, UniProt P56856); assay: Cellular ELISA on L929-Claudin 18.2 cells; assay type: binding; set-up: expressed in transfected cells; host or cells: L929, infected with pLVX-IRES-puro lentivirus, puromycin-selected monoclonal line; cells were formaldehyde-fixed for the cellular ELISA
# Protocol: Human Claudin18.2 is a four transmembrane protein and has a complex structure. Cellular ELISA was thus carried out to maintain the structure of Claudin18.2. The stable cell line L929-Claudin 18.2 constructed in Example 1 were used for detection. Specifically, L929-Claudin 18.2 adherent cells were detached by 2 mM EDTA treatment. The cells were resuspended and adjusted to 2×10^5/mL and 100 μL of the resuspension was plated into 96 well plate and incubated overnight at 37° C. The next day, the media was removed, and the plate was washed with PBS once. 100 μL/well 4% formaldehyde was added to the plate. After 30 min of incubation at room temperature, formaldehyde was removed, followed by washing twice with PBS. Blocking buffer (PBS containing 2% BSA) was then added to the plate at 100 μL/well, and incubated at 37° C. for 2 h. After removal of blocking buffer, 100 μL/well of serially diluted antibodies (starting from 1 μM, with 4-fold dilution, for a total of 11 concentrations) were added to the corresponding wells, which were incubated at 37° C. for 2h afterwards. The plate was washed with 250 μL PBST for 5 times, and was allowed to stand for 2 min each time. 100 μL/well of horseradish peroxidase labeled anti-Human IgG secondary antibody (HRP-anti-Human IgG, Jackson ImmunoResearch, 109-035-003) diluted 1:10000 in PBS (containing 2% BSA) was added to the plate. The plate was incubated at 37° C. for 1 h and washed with 250 μL PB ST 6 times, wherein the plate was allowed to stand for 2 min each time. 100 μL/well of TMB solution (Thermo, 34029) was added. The reactions were incubated at 37° C. for 20 min and stopped with 50 μL 2 mol/L H2504. The absorbance at 450 nm was read on a plate reader (MD, SpectraMax M2) and the results were subjected to curve fitting by Graphpad Prism.
# [2] = target: T1, human Claudin18.2; assay: Specificity by FACS, HEK293T-human Claudin18.2 cells; assay type: binding; set-up: expressed in transfected cells; host or cells: L929, infected with pLVX-IRES-puro lentivirus, puromycin-selected monoclonal line; cells were formaldehyde-fixed for the cellular ELISA; conditions: antibody 1000 nM
# Protocol: (§1) The specificity of candidate antibodies was detected by FACS. The steps are as follows, HEK293T, HEK293T-human Claudin 18.1 and HEK293T-human Claudin18.2 cells were detached and then centrifuged. After washing twice with PBS, the cells were resuspended with PBS containing 1% BSA. 300,000 cells for each cell line were added with the candidate antibodies at a final concentration of 1000 nM, mixed well, and incubated for 1 h at 4° C., protected from light. Then the cells were washed for three times with PBS and FITC-labeled anti-human Fc secondary antibody (BioLegend, 409322) was added, followed by 0.5h of incubation at 4° C. in the dark. Detection was performed by flow cytometry (Beckman, Cytoflex) after washing with PBS for three times.
# [3] = target: T2, human Claudin 18.1 (Homo sapiens, UniProt P56856); assay: Specificity by FACS, HEK293T-human Claudin 18.1 cells; assay type: binding; conditions: antibody 1000 nM
# T2 construct: expressed in transfected cells; host or cells: HEK293T, infected with pLVX-IRES-puro lentivirus; clone HEK293T-Claudin 18.1-1C2
# Protocol: as §1
# [4] = tested on: HEK293T-Claudin 18.2 cells; assay: NK cell mediated ADCC on HEK293T-Claudin 18.2 cells (LDH); assay type: cell-based; conditions: HEK293T-Claudin 18.2 target cells; Table 14 experiment
# Protocol: The steps were as follows: HEK293T-Claudin 18.2, L929-Claudin 18.2, KATOIII-Claudin 18.2 and NUGC-4 cells were harvested and centrifuged followed by adjustment of cell density. 1×10^4/well of cells were plated on a plate and incubated overnight. The medium was removed on the next day. NK92MI-CD16a cells (Huabo Biopharm) were centrifuged, resuspended in MEMA medium and adjusted to 1×10^6/mL, then 50 μL/well cells were added to the corresponding wells. […] For HEK293T-Claudin18.2, L929-Claudin18.2 and KATOIII-Claudin18.2 cells, ten antibody concentrations were tested, starting from 40 μg/mL with 5-fold dilution. For NUGC-4 cells, eleven antibody concentrations were tested, starting from 2 mg/mL with 5-fold dilution. 50 μL/well of the diluted antibodies were added to the corresponding wells and the reactions were left to stand in incubator at 37° C., 5% CO2 and incubated for 5.5h. Lysis buffer was then added to the positive control well and incubated for another 0.5h. 50 μL/well of Lactate Dehydrogenase (LDH) detection agent (DOJINDO LABORATORISE, CK12) were added to the wells and the absorbance at 490 nm were taken every 10 min on a plate reader (MD, SpectraMax M2). The results were imported into Graphpad Prism for curve fitting.
# The cell used was HEK293T-Claudin 18.2. The ADCC activity of antibody 2C6.9-hz21 on HEK293T-Claudin 18.2 is stronger than that of IMAB362.
# [5] = target: T1, human Claudin18.2; assay: Flow cytometry affinity to HEK293T-Claudin 18.2 cells; assay type: binding; set-up: expressed in transfected cells
# Protocol: The affinity of 2C6.9-hz21 to human claudin 18.2 on cell membrane was detected using HEK293T-Claudin 18.2 cells, as follows. HEK293T-Claudin 18.2 cells were detached and centrifuged, followed by washing for twice with PBS. And then the cells were resuspended in PBS containing 1% BSA and were plated into 96-well tip bottom plate at 300000 cells per well in a volume of 50 μl for 20 wells in total. 2C6.9-hz21 or IMAB362 antibody was then added with 11 concentrations starting from 1000 nM with three-fold dilution. Human IgG was served as negative control. The reactions were mixed well and incubated for 1 h at 4° C. in the dark. Following by three times of washing with PBS, the FITC-labelled anti-human Fc secondary antibody (Biolegend, 409322) was added and incubated for 0.5h in the dark. Detection was performed by flow cytometry (Beckman, Cytoflex) after washing for three times with PBS.
# [6] = Monitoring of death and body weight during the tumor suppression experiment; assay type: in vivo; conditions: tumor-bearing Balb/c nude mice, combined with paclitaxel for injection, observation period
# Excerpt: The mouse subcutaneous xenograft tumor model of NCI-N87-Claudin 18.2 was established by the method mentioned above. When the average volume of the tumors was about 110 mm^3, the tumor-bearing mice were grouped randomly according to tumor size. There were 3 groups: the group of anti-chicken lysozyme human IgG1 of isotype control (Negative Control, Chengdu Kelun-Biotech Co. Ltd., abbreviated as IgG1 WT), the group of paclitaxel for injection (Albumin Bound, Hunan Kelun), and the combination group of 2C6.9-hz21+Paclitaxel for injection. All samples were injected via tail vein twice a week for 3 weeks. After administration, the tumor volume and body weight of mice was observed and measured regularly, and the data analysis method is as described above.
molecule,measurement,setting,value
B1,Max Signal Value (OD450),[1]; Table 9 experiment,0.92 OD450
same,Max Signal Value (OD450),[1]; Table 10 experiment,0.8 OD450
same,binding to human Claudin 18.2,[2],specifically bind to human Claudin 18.2
same,binding to human Claudin 18.1,[3],not human Claudin 18.1
same,Max Cytotoxicity,[4],30%
same,Max MFI,[5],165866.3
same,"drug toxicity (death, weight loss)",[6],no obvious drug toxicity
